Whole data set: some 110,000 compounds, median “z-score” near -0.1, cut for the highest 2% near 2. The list shows a part of the results.

This test concerns the target Metabotropic glutamate receptor 8 (Rattus norvegicus) (UniProt P70579). Nature of the test: mGluR8 Gi/Go-coupled signaling modulation – cell-based, rat, thallium flux, HTS, primary screen (AID 488969). To be noted: HEK293 rat mGluR8, GIRK (G protein-gated inwardly rectifying potassium channel) thallium flux, FluoZin2; at 10 µM; stronger effect = higher value; submaximal glutamate (EC20) added with thallium.
UniProt P70579, sequence (P70579 whole entry, looked up): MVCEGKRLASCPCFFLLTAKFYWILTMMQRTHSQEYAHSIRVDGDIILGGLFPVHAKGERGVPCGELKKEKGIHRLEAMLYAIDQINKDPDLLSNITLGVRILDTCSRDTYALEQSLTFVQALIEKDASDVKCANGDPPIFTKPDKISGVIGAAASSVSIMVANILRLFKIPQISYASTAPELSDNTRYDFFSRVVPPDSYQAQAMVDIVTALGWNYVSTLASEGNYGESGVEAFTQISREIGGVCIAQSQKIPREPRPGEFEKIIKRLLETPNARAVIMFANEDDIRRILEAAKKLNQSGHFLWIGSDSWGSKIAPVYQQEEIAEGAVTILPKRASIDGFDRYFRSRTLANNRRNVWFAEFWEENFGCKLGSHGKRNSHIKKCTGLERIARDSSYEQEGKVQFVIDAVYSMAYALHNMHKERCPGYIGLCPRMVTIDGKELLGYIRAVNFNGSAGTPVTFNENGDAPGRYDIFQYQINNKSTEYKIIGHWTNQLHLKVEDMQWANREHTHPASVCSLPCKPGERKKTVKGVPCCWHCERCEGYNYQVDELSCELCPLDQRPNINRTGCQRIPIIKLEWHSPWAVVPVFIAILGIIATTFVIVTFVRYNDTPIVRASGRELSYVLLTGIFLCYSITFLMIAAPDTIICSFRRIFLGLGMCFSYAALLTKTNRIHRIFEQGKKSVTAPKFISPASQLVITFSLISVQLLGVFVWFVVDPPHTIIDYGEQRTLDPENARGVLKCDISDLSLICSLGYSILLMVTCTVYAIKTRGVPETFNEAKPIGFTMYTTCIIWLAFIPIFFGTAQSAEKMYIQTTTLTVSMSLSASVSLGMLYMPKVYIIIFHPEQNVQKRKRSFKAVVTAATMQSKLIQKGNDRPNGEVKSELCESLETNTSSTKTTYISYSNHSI
Take `Cc1ccccc1-c1ccc(C=Nc2c(C)n(C)n(-c3ccccc3)c2=O)o1`: the z-score was -0.297.

As to `CCN1C(=O)C(O)(C2COC(C)(C)CC2=O)c2cc(Br)ccc21` (stereo unspecified), the z-score was 0.195.

On to `O=C(CSc1nnc(COc2ccccc2)n1-c1ccccc1)c1ccccc1`, for which the z-score was determined as 0.529.

`O=C(NC1=NCCS1)c1cccc(S(=O)(=O)N2CCCCC2)c1` had a z-score of -0.16.

As for `O=C(Oc1ccc(Cl)cc1N1C(=O)CCC1=O)c1ccco1`, the z-score is -0.348.

For `CCCCOCC1CN(c2ccccc2)C(=O)CS1` (stereo unspecified), the z-score worked out at 0.197.

Compound `CCc1ccc2c(c1)C(c1ccc([N+](=O)[O-])cc1)=NNC(c1ccccc1)=N2` had a z-score of -0.173.

On to `CN1CC=C2C(C#N)=C(N)C(C#N)(C#N)C(Cc3ccccc3)C2C1` (stereo unspecified), for which the z-score was -0.155.

Compound `CNC(=S)N/N=C(\C)c1ccc(C(C)(C)C)cc1` displayed a z-score of 2.03.

Turning to `CN(C)CCNC(=O)NC1CCCCC1`, the z-score was determined as 0.481.

On to `O=C(NCc1cccnc1)c1ccc(S(=O)(=O)N2CCCCC2)cc1`, for which the z-score is -0.0436.

Regarding `N#Cc1ncc(-c2ccc3c(c2)OCCOCCOCCOCCOCCO3)nc1C#N`, the z-score was -0.26.

On to `CCC1(C)Cc2c(sc3nnn(CC(=O)Nc4ccccc4)c(=O)c23)CO1` (stereo unspecified), for which the z-score was -0.58.

As to `CC1CCN(c2ccccc2NC(=S)NC(=O)c2ccc(-c3cccc([N+](=O)[O-])c3)o2)CC1`, the z-score amounted to 0.191.

For `Cc1ccc(S(=O)(=O)Cc2ccc(C(=O)N3CCN(c4cc(C)ccc4C)CC3)o2)cc1`, the z-score was -0.0666.

With `CC(C)(C)c1nn2cnnc2n(/N=C/c2ccccc2)c1=O`, the z-score was -0.108.

In turn, `COc1ccccc1Nc1nc(-c2sc(NC(=O)CC(C)C)nc2C)cs1` came in with a z-score of -0.0722.

As to `O=C1CC(SC(=Nc2ccccc2)Nc2ccccc2)C(=O)N1c1cccc2ccccc12` (stereo unspecified), the z-score stood at 0.381.

For `Cc1c([N+](=O)[O-])c([N+](=O)[O-])nn1CC(=O)NCCc1ccccc1`, the z-score is -0.129.

`CCN(C(=O)c1coc(=O)c2ccccc12)c1cc(OC)ccc1OC`: the z-score was -0.298.

Take `COc1cccc(S(=O)(=O)NCc2ccc(C(=O)Nc3ccc(Cl)cc3)cc2)c1`: the z-score was -0.235.

`CC(C)CNS(=O)(=O)c1cc(C(=O)N2CCOCC2)c(Cl)cc1Cl` came in with a z-score of -0.135.

For `Cc1ccc(C(C)C)c(OCC(O)CN2CC(C)OC(C)C2)c1` (stereo unspecified), the z-score came to 0.11.

`COC(=O)/C(=C\Nc1ccc(Cl)c2ccccc12)c1ncc(C(F)(F)F)cc1Cl` came in with a z-score of -0.121.

`Cc1ccc(S(=O)(=O)NCCSc2nnc(N)s2)cc1` registered a z-score of -0.295.

The compound `CCOC(=O)C1=C(C)N(C)C(C)=C(C(=O)OCC)C1c1cccnc1` came in with a z-score of -0.0865.

As for `COc1ccccc1CNc1ccc(N2CCOCC2)c(C(=O)O)c1`, the z-score worked out at 0.805.

Consider `Cc1ccc(OCCCCn2ccnc2)c(Cl)c1`, for which the z-score was 0.882.

Consider `CCCC1C2C(=O)N(c3ccccc3OCC)C(=O)C2ON1c1ccccc1` (stereo unspecified), for which the z-score is 0.107.

For `CCN=c1scc(-c2ccco2)n1/N=C/c1ccc(OC)c(O)c1`, the z-score was 0.709.

In the case of `COc1ccccc1CN1C(=O)c2cccc3cccc(c23)C1=O`, the z-score was -0.251.

Regarding `CCOC(=O)c1cnn(-c2cc(Oc3cccc(C)c3)ncn2)c1N`, the z-score is -0.381.

For the compound `CC(C)(C)c1ccc(S(=O)(=O)NCCc2ccncc2)cc1`, the z-score stood at 0.0957.

On to `CCNC(=O)CCS(=O)(=O)c1ccc2ccccc2c1`, for which the z-score turned out to be 0.0954.

Regarding `CC(C)(C)NC(=O)C(c1ccncc1)N(C(=O)Cn1nnc(-c2cccs2)n1)C1CCCCC1` (stereo unspecified), the z-score is -0.081.

`CCN(CC)CCn1c(=S)[nH]c2ccc(Cl)cc2c1=O` registered a z-score of 1.01.

`Cc1nc2ccccc2n1C(=O)N1CCOCC1` came in with a z-score of 0.0113.

For the compound `Cc1cc(C)n(-c2ccc(C(=O)OC(C)C)cc2)n1`, the z-score was 0.075.

Compound `Oc1ccc(C2C(c3ccccc3)=NN=C(c3ccc(Cl)cc3)N2O)c(O)c1` (stereo unspecified) returned a z-score of -0.173.

`COc1ccc(N2CCN(c3ncccn3)CC2)cc1` returned a z-score of -0.0553.

For the compound `O=[N+]([O-])c1ccc(-c2nnc(-c3ccccc3)c(N3CCOCC3)n2)cc1`, the z-score was 0.0632.

Turning to `Cc1ccc(S(=O)(=O)N(C)CC(=O)OCC(=O)NC(=O)Nc2ccc3c(c2)OCCO3)cc1`, the z-score was -0.391.

For the compound `Nc1cnc(-c2ccccc2)nc1Cl`, the z-score is -0.315.

`CCOC(=O)C1=C(C)OC(N)=C(C#N)C1c1ccc(O)c(OC)c1` (stereo unspecified) registered a z-score of -0.941.

Compound `CCOC(=O)c1c(C)c(C(=O)NCC2CCCO2)c(C)n1C` (stereo unspecified) had a z-score of -0.262.

Regarding `CCC(CC)C1C(C#N)=C(N)SC(N)=C1C#N`, the z-score was -0.0721.

For `COc1cc2c(cc1OC)C(C)N(C(=O)c1cc3n(n1)C(C(F)(F)F)CC(c1ccco1)N3)CC2` (stereo unspecified), the z-score is -1.45.

`O=C(OCC(=O)N1CCCc2ccccc21)c1cccc(S(=O)(=O)N2CCc3ccccc32)c1` displayed a z-score of 0.996.

The compound `Cc1cc2cc(CNS(=O)(=O)c3ccc4ccccc4c3)ccc2n1C` gave a z-score of -0.135.

For the compound `CN1C(=O)Cc2cc(S(=O)(=O)N3CCOCC3)ccc21`, the z-score was 0.00719.

As to `Cn1c(CO)cnc1SCc1ccc(Cl)cc1`, the z-score was -0.181.

In turn, `CCOc1ccc2nc(SCC(=O)Nc3ncccn3)[nH]c2c1` had a z-score of -0.491.

Turning to `Cc1cc(NCc2ccccc2)nc(-c2ccccc2O)n1`, the z-score is -0.572.

Turning to `CC1(C)C(=O)OC(c2cccs2)C2(CCCCC2)C1=O` (stereo unspecified), the z-score amounted to 0.489.

Compound `CN(C)S(=O)(=O)c1ccc(N2CCCC2=O)c([N+](=O)[O-])c1` gave a z-score of -0.369.

`CCOC(=O)c1ccc(NC(=O)c2ccccc2N(C)S(=O)(=O)c2ccccc2)cc1` registered a z-score of -0.254.

`Cc1cc(C)c(C(=O)c2ccc(C(=O)N(C(C)C)C(C)C)cc2)c(C)c1` registered a z-score of -0.0179.

`C/C(=N\NC(=O)COc1cc(C)cc(C)c1)c1ccc(N2CCOCC2)cc1`: the z-score is -0.331.

`COc1ccccc1CN(C)C(=O)c1ccc2c(c1)NC(=O)CS2`: the z-score was -0.304.

`Cc1nnc(SCC(=O)Nc2ncc(S(=O)(=O)c3ccc([N+](=O)[O-])cc3)s2)s1` showed a z-score of -0.626.

As to `CCNC(=S)NNC(=O)c1cccn(Cc2ccc(Cl)cc2)c1=O`, the z-score is 0.759.

`CC(=O)Nc1cccc(OCC(=O)NS(=O)(=O)c2ccc(C)cc2)c1` registered a z-score of -0.0467.

With `COC(=O)c1cnc2c(C(F)(F)F)cccc2c1OC`, the z-score was determined as 0.434.

`C=CCn1c(COc2cccc3cccnc23)nnc1SCC(=O)OC` had a z-score of -0.286.

`CCCn1c(=N)c(C(=O)NCC2CCCO2)cc2c(=O)n3cccc(C)c3nc21` (stereo unspecified) registered a z-score of 0.17.

The compound `Cc1cc(=O)c2cccc(Br)c2[nH]1` yielded a z-score of 0.656.

In the case of `Cc1cc(C)c(NN=c2c(=O)c3ccccc3c2=O)c(C)c1`, the z-score is 0.225.

Regarding `COc1ccc(NC(=S)N2CCc3ccccc3C2)cc1`, the z-score is -0.0767.

In turn, `Cc1ccc2c(CC(=O)OC(C)C(=O)NCc3ccc4c(c3)OCO4)coc2c1` (stereo unspecified) registered a z-score of 2.05.

The compound `CCCCc1ccc(C2C3=C(CC(C)(C)CC3=O)NC3=C2C(=O)c2ccccc23)cc1` (stereo unspecified) gave a z-score of -0.0176.

`CCOc1ccc(CCNC(=O)C2CCC(=O)N2CCc2ccccc2)cc1OCC` (stereo unspecified) returned a z-score of 0.408.

For the compound `COc1ccc(Cl)cc1S(=O)(=O)N1CCCC(C(=O)NCC(N)=O)C1` (stereo unspecified), the z-score worked out at 0.286.

`Cc1cnc(C(=O)Nc2ccc(C(=O)N3CCCCC3)cc2)cn1` had a z-score of 0.103.

In the case of `Cc1ccc(S(=O)(=O)N2CCCCCC2)cc1[N+](=O)[O-]`, the z-score was -0.508.

The compound `NC(=S)Nc1cccc2cc3ccccc3cc12` gave a z-score of -0.237.

`Cc1nn(Cc2ccc(C(=O)N3N=C(C(F)F)CC3(O)C(F)F)cc2)c(C)c1[N+](=O)[O-]` (stereo unspecified): the z-score was -0.326.

The compound `CCCS(=O)(=O)N1CCN(CC2CC3C=CC2C3)CC1` (stereo unspecified) registered a z-score of 0.569.

As to `COc1ccc(-c2cccc(C(=O)Nc3ccc(OC)c(OC)c3)c2)cc1`, the z-score was -0.0958.

In turn, `O=C(CC(=O)c1ccccc1)Nc1cc(C(F)(F)F)ccc1Cl` gave a z-score of 0.107.

With `CCOc1ccccc1C(=O)N[C@H](C(=O)OCc1cc([N+](=O)[O-])cc2c1OCOC2)C(C)C`, the z-score stood at 0.0676.

In turn, `O=C(CCc1ccccc1)NC(NC(=S)Nc1cccc(Cl)c1)C(Cl)(Cl)Cl` (stereo unspecified) had a z-score of 0.0798.

`CCOc1ccc(N=Cc2c(O)n(-c3cccc(C)n3)c(=O)c3ccccc23)cc1` had a z-score of -0.957.

Compound `COc1ccc(OC)c(NC(=O)C2CCCCC2)c1` yielded a z-score of -0.385.

For the compound `CCOC(=O)c1nc(C)n(-c2ccc(Cl)cc2Cl)n1`, the z-score is -0.169.

`Cc1ccc(C(C)C)cc1S(=O)(=O)NCc1cccnc1` gave a z-score of 1.17.

`O=C(NCc1ccco1)c1cccc(S(=O)(=O)N2CCCCC2)c1` yielded a z-score of -0.125.

`CCOc1ccccc1NC(=O)NC1(C(=O)N2CCOCC2)CCCCC1` showed a z-score of -0.0704.

With `Cc1ccc(CNC(=O)COC(=O)CCCOc2ccc(Cl)cc2Cl)cc1`, the z-score is -0.31.

On to `COC(=O)CSc1nnc(CNc2nc(-c3ccccc3)cs2)n1C`, for which the z-score is -0.933.

`O=C(Nc1ncc(Cc2ccccc2)s1)C1CCCO1` (stereo unspecified) displayed a z-score of -0.132.

`COc1ccc(CC(=O)N2N=C(C)CC2(O)C(F)(F)F)cc1` (stereo unspecified) showed a z-score of -0.0924.

`N#Cc1cc(Cl)c(N2CCOCC2)cc1C#N` came in with a z-score of -0.177.

For the compound `CC1(C)CC(NC(=O)CCC2CCCC2)CC(C)(C)N1`, the z-score came out at 0.678.

The compound `CCOC(=O)c1c(/N=C/C2=C(O)CCCC2=O)sc(C)c1C` showed a z-score of 0.00201.

On to `O=C(c1c(Cl)cccc1Cl)N1CCN(c2ccccn2)CC1`, for which the z-score was found to be 0.0466.

For the compound `CCOC(=O)c1[nH]c2ccc(OC)cc2c1NC(=O)N1CCOCC1`, the z-score came to 0.0438.

`O=C(O/N=C1\CCCCC1c1ccc([N+](=O)[O-])cc1[N+](=O)[O-])c1c(F)cccc1F` (stereo unspecified) had a z-score of -0.523.

In turn, `O=C(c1ccc(Cl)c(S(=O)(=O)NCc2ccco2)c1)N1CCN(c2ccccc2F)CC1` displayed a z-score of -0.0543.

With `CN1CCN(Cc2cc(COCc3ccccc3)c3cccnc3c2O)CC1`, the z-score came to 6.04e-05.

`CC1CCN(c2cc(=O)n(C3CCCCC3)c(=O)[nH]2)CC1` had a z-score of -0.0796.

On to `O=C(NC(=S)NCc1cccnc1)c1ccccc1`, for which the z-score was -1.53.

`CCOc1ccc2ccccc2c1C(=O)N1CCOCC1` yielded a z-score of 0.413.

The compound `CCNC(=S)Nc1cc(OCC)c(N2CCOCC2)cc1OCC` returned a z-score of -0.0264.

In the case of `CC1=CC(C)(C)NC(=S)N1c1ccc2ccccc2c1`, the z-score is -0.275.

As to `Cc1cc(NS(=O)(=O)c2ccc(CC(C)C)cc2)no1`, the z-score is -0.406.

The compound `N#Cc1ccccc1N=C1CCCN1Cc1ccccc1` had a z-score of -1.57.

Consider `Cc1ccc(C(=O)CSc2nnc(Cn3nnc4ccccc43)n2C)cc1`, for which the z-score was determined as 1.03.

The compound `Cn1nnc(NC(=O)CSc2nnnn2-c2ccc(F)cc2)n1` gave a z-score of 0.0243.

Regarding `CC1CCCN(c2nc3ccccc3nc2C(C#N)S(=O)(=O)c2cccs2)C1` (stereo unspecified), the z-score was -1.84.

As for `Cc1cccc(CN(CC(=O)N/N=C/c2ccco2)S(=O)(=O)c2ccc(Cl)cc2)c1`, the z-score is 0.848.

For the compound `CCc1ccc2[nH]c(=O)c(CN(Cc3ccccc3OC)C(=O)Nc3ccccc3OC)cc2c1`, the z-score came out at 0.51.

Source of the values: PubChem BioAssay AID488969 (Vanderbilt High Throughput Screening Facility, 2010).
